This is an account of results in the supplement of paper PMC9446081.

Screen size: about 39,000 compounds; about 220 (0.56%) showed activity. The list shows a part of the results.
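Note: static incubation at 37 °C against the wild-type strain, values averaged over two biological replicates.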

This assay concerns Escherichia coli K-12 BW25113. Briefly: relative growth (OD600 normalised to plate interquartile mean) (fraction); higher = less growth inhibition, active = 0.2 or less. The note with it: 50 µM; LB; incubation time: overnight (16-24 h).
On to `C[C@@H]1CCCCO[C@H](CN(C)C(=O)C2CCCCC2)[C@@H](C)CN([C@H](C)CO)C(=O)c2cc(NC(=O)C3CCCCC3)ccc2O1`, for which the relative growth was inactive: 1.
The same measure for `O=C(C[C@H]1CC[C@@H]2[C@H](COC[C@@H](O)CN2C(=O)c2cccnc2)O1)NCc1ccc(-c2ccccc2)cc1`: inactive: 1.03; for `CNC[C@@H]1Oc2ccc(NC(=O)CCN3CCOCC3)cc2CC(=O)N([C@H](C)CO)C[C@@H]1C`: inactive: 0.985; for `C[C@@H]1CCCCO[C@H](CN(C)Cc2ccccc2)[C@@H](C)CN([C@H](C)CO)C(=O)c2cc(NS(=O)(=O)c3ccccc3)ccc2O1`: inactive: 1.01.
Next, `COc1ccc(NC(=O)N(C)C[C@@H]2Oc3ccc(NC(=O)CCCCCC(=O)Nc4ccccc4N)cc3CC(=O)N([C@@H](C)CO)C[C@@H]2C)cc1`: inactive: 1.02; `N[C@H]1CCS(=O)(=O)C1`: inactive: 0.986; `CC1(C)SC2C(NC(=O)COc3ccccc3)C(=O)N2C1C(=O)[O-].[K+]` (stereo not drawn): inactive: 0.598.
Next, `CC(=O)NCCOCCOCC(=O)N[C@@H]1C/C=C/CCC(=O)N[C@H](c2ccccc2)COC1=O`: inactive: 1; `COc1ccc(NC(=O)N(C)C[C@@H]2Oc3c(NC(=O)Nc4cccc5ccccc45)cccc3C(=O)N([C@H](C)CO)C[C@@H]2C)cc1`: inactive: 1.01; `CC(=O)Nn1cc(C(=O)O)c2ccccc2c1=O`: inactive: 0.968.
On to `C[C@@H]1CCCCO[C@H](CN(C)Cc2ccc(C(=O)O)cc2)[C@H](C)CN([C@@H](C)CO)C(=O)c2cc(NC(=O)Nc3ccc4c(c3)OCO4)ccc2O1`, for which the relative growth is inactive: 0.972.
The same measure for `COC(=O)C(CCCN1C(=O)c2ccccc2C1=O)(NC(C)=O)c1nn[nH]n1` (stereo not drawn): inactive: 0.922; for `O=C(C[C@H]1C=C[C@@H](NC(=O)Nc2ccc3c(c2)OCO3)[C@H](CO)O1)NCCCN1CCOCC1`: inactive: 0.957; for `O=C(C[C@@H]1CC[C@@H]2[C@H](COC[C@@H](O)CN2C(=O)Nc2ccc(C(F)(F)F)cc2)O1)NCCc1ccncc1`: inactive: 0.93.
For `C[C@H](CO)N1C[C@H](C)[C@H](CN(C)Cc2ccc(C(F)(F)F)cc2)Oc2ccc(NC(=O)Nc3ccc(C(F)(F)F)cc3)cc2CC1=O`, the relative growth is inactive: 1.02.
The same measure for `C[C@@H]1CCCCO[C@@H](CN(C)Cc2ccc(C(=O)O)cc2)[C@@H](C)CN([C@@H](C)CO)C(=O)c2cc(NC(=O)NC3CCCCC3)ccc2O1`: inactive: 1.03; for `O=C1CN(S(=O)(=O)Cc2ccccc2)C[C@H]2[C@@H](c3ccc(C#Cc4cccc(F)c4)cc3)[C@H](CO)N12`: inactive: 0.983; for `COc1cccc(NC(=O)N2C[C@H](O)COC[C@H]3O[C@@H](CC(=O)NCCCN4CCOCC4)CC[C@@H]32)c1`: inactive: 0.996.
Next, `CCNC(=O)C[C@H]1C=C[C@H](NC(=O)C2CC2)[C@@H](CO)O1`: inactive: 1.01; `C[C@H]1CN([C@@H](C)CO)C(=O)c2cccc(NC(=O)c3cnccn3)c2O[C@H]1CN(C)S(=O)(=O)c1cn(C)cn1`: inactive: 0.995; `C=CCOC(=O)[C@@H]1[C@H]2C(=O)O[C@H](c3ccccc3)[C@H](c3ccccc3)N2[C@H](c2ccc(OCCOC(=O)[C@@H]3C[C@@H]4C(=O)NCC(=O)N4[C@@H]3c3cccc(OCCO)c3)cc2)[C@@]12C(=O)Nc1ccccc12`: inactive: 1.05.
Next, `C[C@@H]1CCCCO[C@@H](CN(C)C(=O)Nc2cccc3ccccc23)[C@@H](C)CN([C@H](C)CO)C(=O)c2cc(N(C)C)ccc2O1`: inactive: 1.01; `CC(C)N1CC=C[C@@]23O[C@@H]4C=CCCOC(=O)[C@@H]4[C@H]2C(=O)N(CCO)[C@@H]3C1=O`: inactive: 0.992; `Cc1ccc(S[C@]2(C(=O)O)CC(=O)N(Cc3ccccc3C(F)(F)F)[C@@H]2c2ccc(CO)cc2)cc1`: inactive: 0.957.
`C[C@H](CO)N1C[C@H](C)[C@@H](CN(C)Cc2ccc(Oc3ccccc3)cc2)Oc2c(NC(=O)NC3CCCCC3)cccc2C1=O`: the relative growth is inactive: 0.991.
Next, `O=C1c2c(O)cc(CO)cc2C(OC2OC(CO)C(O)C(O)C2O)c2cccc(OC3OC(CO)C(O)C(O)C3O)c21` (stereo not drawn) [CASANTHRANOL [cascaroside A shown]]: inactive: 1.06; `Cc1ccc(S(=O)(=O)N(C)C[C@@H]2Oc3c(NC(=O)c4ccncc4)cccc3C(=O)N([C@H](C)CO)C[C@@H]2C)cc1`: inactive: 0.985; `CC(C)CC#Cc1ccc2c(c1)O[C@@H](CN(C)Cc1cncnc1)[C@@H](C)CN([C@@H](C)CO)S2(=O)=O`: inactive: 0.951.
Next, `COC(=O)c1c[nH]c(=S)n1C`: inactive: 1.04; `C[C@H]1CN([C@@H](C)CO)S(=O)(=O)c2ccc(C#Cc3ccncc3)cc2O[C@@H]1CN(C)C(=O)Nc1ccc2c(c1)OCO2`: inactive: 0.998.
In the case of `Cc1noc(C)c1NC(=O)N(C)C[C@H]1OCCCC[C@@H](C)Oc2ccc(NS(=O)(=O)c3ccc(Cl)cc3)cc2C(=O)N([C@H](C)CO)C[C@H]1C`, the relative growth is inactive: 0.962.
With `C[C@@H]1CN([C@H](C)CO)C(=O)c2cc(NS(=O)(=O)c3cn(C)cn3)ccc2O[C@H]1CN(C)S(C)(=O)=O`, the relative growth was inactive: 1.01.
Consider `C[C@@H]1CCCCO[C@H](CN(C)CC2CC2)[C@@H](C)CN([C@H](C)CO)C(=O)c2cc(NC(=O)CCC(F)(F)F)ccc2O1`, for which the relative growth is inactive: 1.02.
As to `C=C[C@](C)(O)CCC[C@H](C)CCC[C@H](C)CCCC(C)C`, the relative growth was inactive: 0.998.
Take `Cc1ccc(S(=O)(=O)Nc2ccc3c(c2)CC(=O)N([C@@H](C)CO)C[C@@H](C)[C@@H](CN(C)Cc2ccc(-c4ccccc4)cc2)O3)cc1`: the relative growth is inactive: 1.01.
Next, `CC1(C)C=Cc2c(c3c(c4c(=O)c(-c5ccc(O)cc5)coc24)OC(C)(C)CC3)O1`: inactive: 1; `Cc1ccc(S(=O)(=O)Nc2ccc3c(c2)CC(=O)N([C@@H](C)CO)C[C@@H](C)[C@@H](CN(C)S(=O)(=O)c2cccs2)O3)cc1`: inactive: 0.995; `COc1ccc(S(=O)(=O)Nc2ccc3c(c2)C(=O)N([C@H](C)CO)C[C@H](C)[C@@H](CN(C)C(=O)Nc2ccc(C(F)(F)F)cc2)OCCCC[C@H](C)O3)cc1`: inactive: 0.995.
